Experimental data: PubChem BioAssay AID504466 (National Center for Advancing Translational Sciences (NCATS), 2011)
The whole screen tested about 330,000 compounds, of which about 4,200 (1.3%) were called active. Inconclusive results, whose numbers are uncertain, are shown with a selection of clear calls. The call rests on the fitted dose curve; in most records, active means well fitted activation curve with a large enough effect; inconclusive means small, poorly fitted or top-dose-only effect; inactive means no such curve, though single readings can be large or run the other way. Potencies of inconclusive entries are doubtful fits and often do not repeat.
Potency means the concentration at half of the fitted maximal effect; tags describe the fitted curve by direction and shape.

Experiment: qHTS screen for small molecules that induce genotoxicity in human embryonic kidney (HEK293T) cells expressing luciferase-tagged ELG1; further: nearly all actives have a fitted effect of over 60% in size
Details: HEK293T ELG1-luciferase reporter, luminescence, 16 h; series mostly up to 46 µM
Method in brief: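 Cells (2,000/well) expressing the ELG1-luciferase fusion are dosed by pin tool and kept 16 hr at 37 °C, 5% CO2. Signal comes from ONE-Glo luciferase reagent after 30 min at room temperature.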
In the case of `O=c1cc(O)c2sc3nc4c(c(C(F)(F)F)c3c2[nH]1)CCCCC4`, the Potency is reported as “inactive”.
For `CCS(=O)(=O)c1nc(S(=O)(=O)c2ccc(C)cc2)c(N2CC(C)CC(C)C2)s1` (centres undefined), the Potency was “inactive”.
For `O=C(CSc1ncc(-c2ccccc2)[nH]1)Nc1cccc(O)c1`, the Potency was “inactive”.
With `O=C(NCCCn1ccnc1)c1cc2ccccc2oc1=O` the Potency was “inactive”.
For `CNC(=S)Nc1cccc(-c2cnc3ccccc3n2)c1`, the Potency was inconclusive: 18.3 µM [activator, partial curve, poor fit].
With `COc1cc2cnc(-c3ccsc3)cc2cc1OC` the Potency was “inactive”.
In the case of `Cc1cc(NC(=O)c2c(F)cccc2Cl)no1`, the Potency is reported as “inactive”.
In the case of `NC(=O)c1nsc(C(=O)N(c2ccccc2F)C(C(=O)NCc2ccccc2)c2ccc(O)cc2)c1N` (centres undefined), the Potency is reported as “inactive”.
In the case of `Cc1cccc(NC(=O)CNC(=O)CSc2nc(N)cc(N)n2)c1C`, the Potency is reported as “inactive”.
For `Cc1ccc(CN(CC(=O)NCc2ccc3c(c2)OCO3)C(=O)c2csnn2)cc1`, the Potency was inconclusive: 0.259 µM [activator, single point].
With `CCOCc1nnc(NC(=O)CS(=O)(=O)c2ccc(C)cc2)s1` the Potency was “inactive”.
With `Cc1ccc(Nc2nc(-c3ccc(O)c(O)c3)cs2)nc1` the Potency was inconclusive: 8.2 µM [activator, partial curve, poor fit].
In the case of `CC(CNC(=O)Cn1ccc2cc(S(=O)(=O)N3CCCC3)ccc21)c1ccccc1` (centres undefined), the Potency is reported as “inactive”.
With `Cc1cccc(CSc2nc3ccccc3c(=O)n2C)c1` the Potency was “inactive”.
For `Cc1ccc(NC(=O)Cc2noc3ccccc23)cc1`, the Potency was inconclusive: 16.4 µM [activator, partial curve, poor fit].
In the case of `O=C(Cn1ncc(Cl)c(Cl)c1=O)NC(=O)NC1CCCCC1`, the Potency is reported as inconclusive: 6.51 µM [activator, partial curve, poor fit].
In the case of `O=C(Nc1ccc2c(c1)OCCO2)c1cncc(Br)c1`, the Potency is reported as inconclusive: 2.91 µM [activator, partial curve].
For `N#Cc1cc(N2CCOCC2)nc2ccccc12`, the Potency was inconclusive: 9.2 µM [activator, partial curve, poor fit].
For `CCOC(=O)c1[nH]c(C)c(C(=O)Nc2cc(Cl)ccc2C)c1C`, the Potency was inconclusive: 14.6 µM [activator, partial curve, poor fit].
For `CCSc1nnc2c3cc(CC)ccc3n(C)c2n1`, the Potency was inconclusive: 20.6 µM [activator, partial curve, poor fit].
In the case of `CCSc1nc2c(cnn2-c2ccccc2)c(=O)n1N`, the Potency is reported as inconclusive: 11.6 µM [activator, partial curve, poor fit].
With `COCC(=O)n1nc(-c2ccc(Cl)cc2)nc1NCc1ccc(F)cc1` the Potency was inconclusive: 18.4 µM [activator, single point].
With `O=C(COC(=O)C1CC1)NCc1ccccc1Cl` the Potency was inconclusive: 20.6 µM [activator, partial curve, poor fit].
For `O=C(CCNC(=O)c1ccccc1Cl)Nc1nc2ccccc2s1`, the Potency was inconclusive: 18.3 µM [activator, partial curve, poor fit].
For `S=C(Nc1ccc2c(c1)OCCO2)Nc1ccc2c(c1)OCO2`, the Potency was inconclusive: 20.6 µM [activator, partial curve].
With `CCC(=O)NC(=S)Nc1ccc2oc(-c3ccc(OC)cc3)nc2c1` the Potency was active: 16.4 µM.
For `O=[N+]([O-])c1cccc(C2=NC(c3ccccc3)CO2)c1` (centres undefined), the Potency was inconclusive: 23.1 µM [activator, single point].
For `O=C(CCc1nc2ccccc2c(=O)[nH]1)Nc1ccc(F)cc1`, the Potency was “inactive”.
With `Cc1ccc2cc(CCNC(=O)c3ccco3)c(=O)[nH]c2c1C` the Potency was inconclusive: 7.31 µM [activator, partial curve].
For `COc1ccc(-c2noc(COc3ccc(C)c(C)c3)n2)cc1OC`, the Potency was inconclusive: 29.1 µM [activator, single point].
For `O=c1c2ccccc2nc(SCc2ccccc2)n1CC1CCCO1` (centres undefined), the Potency was “inactive”.
For `COc1cc([N+](=O)[O-])ccc1NC(=O)N1CCCCCC1`, the Potency was “inactive”.
For `COc1ccc(/C=N/n2c(C)cc(C)cc2=O)cc1`, the Potency was inconclusive: 18.3 µM [activator, partial curve, poor fit].
With `COc1cc(NC(=O)C2CCC(CNc3c(N4CCC(C)CC4)c(=O)c3=O)CC2)cc(OC)c1` (centres undefined) the Potency was inconclusive: 23.1 µM [activator, partial curve, poor fit].
With `Cc1cc(C)n(-c2cc(C(C)(C)C)nc3c(-c4ccccc4)cnn23)n1` the Potency was inconclusive: 4.61 µM [activator, partial curve].
In the case of `Cc1ccc(CSc2ncn(-c3ccccc3)n2)cc1`, the Potency is reported as inconclusive: 25.9 µM [activator, single point].
For `CN(C)c1cccc(C(=O)Nc2ccc(N3CCOCC3)cc2)c1`, the Potency was inconclusive: 11.2 µM [activator, partial curve].
In the case of `Cc1cc(C)cc(C(=O)Nc2ccc(N3CCN(C(=O)c4ccco4)CC3)cc2)c1`, the Potency is reported as “inactive”.
For `O=C(Nc1ccc(O)c2c(=O)cc(-c3cccc(Cl)c3)oc12)c1cccc(Cl)c1`, the Potency was inconclusive: 18.3 µM [activator, partial curve, poor fit].
In the case of `Clc1ccc(CN=C2Nc3ccccc3CS2)cc1`, the Potency is reported as inconclusive: 6.51 µM [activator, full curve, poor fit].
In the case of `N#CC(=C1CCCC1)c1nc(-c2cc3ccccc3oc2=O)cs1`, the Potency is reported as inconclusive: 4.11 µM [activator, full curve].
With `COC(=O)/C=C1\NCCNC1=O` the Potency was “inactive”.
For `Cc1cc(=O)[nH]c(SCC(=O)OCc2ccccc2)c1C#N`, the Potency was “inactive”.
In the case of `Cc1cccc(C)c1NS(=O)(=O)c1cc2c3c(c1)CCN3C(=O)CC2`, the Potency is reported as “inactive”.
For `Cn1ccnc1SCc1cn2cc(Br)ccc2n1`, the Potency was inconclusive: 1.64 µM [activator, partial curve].
In the case of `CCOc1ccc(-c2nnc(SCC(=O)N3CCOCC3)o2)cc1`, the Potency is reported as inconclusive: 18.4 µM [activator, partial curve, poor fit].
For `O=C(NCCCO)/C(=C/c1ccc(-c2cccc([N+](=O)[O-])c2)o1)NC(=O)c1ccccc1`, the Potency was “inactive”.
In the case of `CC(=O)N1N=C(c2ccccc2)CC1c1cn(C)c2ccccc12` (centres undefined), the Potency is reported as inconclusive: 20.6 µM [activator, partial curve, poor fit].
For `CCCN1CNc2c(c(=O)[nH]c(=S)n2-c2ccc(Cl)cc2)C1`, the Potency was inconclusive: 25.9 µM [activator, single point].
For `O=C(COc1ccc(Br)cc1CO)Nc1ccccc1F`, the Potency was inconclusive: 23.1 µM [activator, partial curve, poor fit].
For `COc1ccc2nc(NC(=O)Cc3cccs3)sc2c1`, the Potency was active: 6.51 µM.
In the case of `COc1ccc(-c2cc(C(F)(F)F)nc(S(=O)(=O)CCCC(=O)Nc3cc(C)on3)n2)cc1OC`, the Potency is reported as inconclusive: 25.9 µM [activator, single point].
In the case of `O=C1/C(=C\c2cccnc2)Sc2ccccc21`, the Potency is reported as inconclusive: 29.1 µM [activator, single point].
For `CN1CCN(c2ccc(NC(=O)c3ccc4ccccc4c3)cc2)CC1`, the Potency was active: 1.83 µM.
With `COc1ccc(Oc2nnc(C)c3ccccc23)cc1` the Potency was inconclusive: 23.1 µM [activator, single point].
In the case of `CCC(C)[C@H](NC(=O)N1CCN(c2cccc(C(F)(F)F)c2)CC1)C(=O)OC` (some centres undefined), the Potency is reported as “inactive”.
With `COc1ccc(/C=C2\CCc3c2nc2ccccc2c3C(=O)O)cc1OC` the Potency was active: 4.11 µM.
In the case of `CC(=O)Nc1cccc(OCC(=O)Nc2sccc2C(N)=O)c1`, the Potency is reported as inconclusive: 6.51 µM [activator, partial curve].
With `Cc1c(-c2ccccc2)nc(N)c(C#N)c1-c1ccco1` the Potency was inconclusive: 23.1 µM [activator, partial curve, poor fit].
For `NNc1nc2ccc(F)cc2s1`, the Potency was inconclusive: 16.4 µM [activator, partial curve, poor fit].
For `Cc1ccnc(Nc2nc(-c3ccc(F)cc3)cs2)c1`, the Potency was inconclusive: 2.59 µM [activator, single point].
With `CCOc1ccc(CNc2nc3ccccc3n2C)cc1` the Potency was inconclusive: 20.6 µM [activator, partial curve].
In the case of `Nc1cc2sc(-c3ccc(C(=O)O)cc3)nc2cc1Cl`, the Potency is reported as inconclusive: 4.61 µM [activator, partial curve].
In the case of `CCN(CC)C(=O)[C@H]1C[C@H](CC(=O)NCCN2CCOCC2)C(=O)N2CCc3c([nH]c4ccc(Cl)cc34)[C@]12C`, the Potency is reported as “inactive”.
With `COc1ccc(/C(=N/Nc2ncnc3ccccc23)C(=O)O)cc1` the Potency was inconclusive: 4.11 µM [activator, partial curve].
In the case of `COC(=O)c1ccc(COc2ccc(/C=N/Nc3cccc(C(=O)O)c3)cc2)cc1`, the Potency is reported as inconclusive: 1.64 µM [activator, full curve].
In the case of `O=C(CCC1CCCC1)NCCS(=O)(=O)N1CCN(c2ccccc2F)CC1`, the Potency is reported as “inactive”.
In the case of `O=C(COc1cccc2cccnc12)Nc1nccs1`, the Potency is reported as inconclusive: 9.2 µM [activator, partial curve].
For `CCCCn1c(N)c(N(CC(C)C)C(=O)c2cc(C)oc2C)c(=O)[nH]c1=O`, the Potency was “inactive”.
For `O=c1oc2ccccc2cc1-c1ccccc1`, the Potency was inconclusive: 14.6 µM [activator, single point].
With `CN(C)c1ccnc(SCc2ccccc2Cl)c1C#N` the Potency was inconclusive: 18.4 µM [activator, partial curve, poor fit].
In the case of `Cc1ccccc1C(=O)Nc1nncs1`, the Potency is reported as “inactive”.
With `CC(=O)c1cccc(NC(=O)c2cc(-c3ccc(C)cc3)on2)c1` the Potency was active: 4.61 µM.
For `CC1CN/C(=C\C(=O)c2ccccc2)C(=O)N1` (centres undefined), the Potency was inconclusive: 8.2 µM [activator, partial curve, poor fit].
